{"source": "patent US20260008862A1", "about": "“Bispecific Anti-BCMA x Anti-CD3 Antibodies and Uses Thereof” (Regeneron Pharmaceuticals, Inc., priority 2018, published 2026)", "molecules": {"B1": {"name": "mAb16716: anti-BCMA antibody, HCVR/LCVR SEQ ID NOs 18/26 (antibody, V domains shown)", "VH": "[about 100 residues not listed]RAGDNWNWFDPWGQGTLVTVSS", "VL": "DIQMTQSPSSVSASLGDRVTITCRASQGISSWLAWYQRKPGKAPKLLIYAASSLQSGVPSRFSGSGSGADFTLTISSLQPEDFATYYCQQAKSVPFTFGPGTKVDIK"}}, "key": {"[1]": {"target": "T1, human BCMA-MMH (Homo sapiens, UniProt Q02223)", "T1 construct": "(human BCMA-MMH); myc-myc-hexahistidine (C); made in house", "T1 sequence (Q02223 with tags, fused parts or gaps)": "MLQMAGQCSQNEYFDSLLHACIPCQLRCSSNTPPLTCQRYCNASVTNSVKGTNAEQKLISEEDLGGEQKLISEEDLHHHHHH", "assay": "SPR (Biacore 4000) binding kinetics to human BCMA-MMH", "settings": "25° C.", "description": "(§1) The CM5 Biacore sensor surface was derivatized by amine coupling with a monoclonal mouse anti-human Fc antibody (GE, #BR-11008-39) to capture purified anti-BCMA mAbs and anti-BCMA×anti-CD3 bispecific mAbs. All Biacore binding studies were performed in a buffer composed of 0.01 M HEPES pH 7.4, 0.15M NaCl, 3 mM EDTA, 0.05% v/v Surfactant P20 (HBS-ET running buffer). […] Antigen samples were then injected over the anti-BCMA and anti-BCMA×anti-CD3 bispecific mAbs captured surfaces at a flow rate of 30 μL/minute. Antibody-reagent association was monitored for 5 minutes while dissociation in HBS-ET running buffer was monitored for 10 minutes. All of the binding kinetics experiments were performed at 25° C. Kinetic association (ka) and dissociation (kd) rate constants were determined by fitting the real-time sensorgrams to a 1:1 binding model using Scrubber 2.0c curve fitting software. Binding dissociation equilibrium constants (KD) and dissociative half-lives (t½) were calculated from the kinetic rate constants as: […]"}, "[2]": {"target": "T2, human BCMA-MFC (Homo sapiens, UniProt Q02223)", "T2 construct": "(human BCMA-MFC); made in house", "T2 sequence (Q02223 with tags, fused parts or gaps)": "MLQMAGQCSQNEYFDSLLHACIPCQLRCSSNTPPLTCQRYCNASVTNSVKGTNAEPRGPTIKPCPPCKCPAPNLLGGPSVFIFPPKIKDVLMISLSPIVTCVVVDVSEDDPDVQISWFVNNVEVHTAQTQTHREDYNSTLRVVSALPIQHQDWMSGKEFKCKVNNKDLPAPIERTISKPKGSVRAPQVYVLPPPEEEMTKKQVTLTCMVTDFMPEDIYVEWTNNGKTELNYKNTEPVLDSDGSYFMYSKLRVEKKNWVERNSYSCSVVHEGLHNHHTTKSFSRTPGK", "assay": "SPR (Biacore 4000) binding kinetics to human BCMA-MFC", "settings": "25° C.", "description": "as §1"}, "[3]": {"tested_on": "monkey BCMA-MFC", "assay": "SPR (Biacore 4000) binding kinetics to monkey BCMA-MFC", "settings": "25° C.; 30 nM antigen", "description": "as §1"}, "[4]": {"tested_on": "mouse BCMA-MFC", "assay": "SPR (Biacore 4000) binding kinetics to mouse BCMA-MFC", "settings": "25° C.", "description": "as §1"}}}
{"molecule": "B1", "values": [{"measurement": "ka", "setting": "[1]", "result": 841000, "unit": "M⁻¹ s⁻¹"}, {"measurement": "kd", "setting": "[1]", "result": 0.00299, "unit": "s⁻¹"}, {"measurement": "ka", "setting": "[2]", "result": 862000, "unit": "M⁻¹ s⁻¹"}, {"measurement": "kd", "setting": "[2]", "result": "8.35e-05", "unit": "s⁻¹"}, {"measurement": "30 nM mfBCMA.mFc Bind (RU)", "setting": "[3]", "result": 3.2, "unit": "RU"}, {"measurement": "ka", "setting": "[4]", "result": 205000, "unit": "M⁻¹ s⁻¹"}, {"measurement": "kd", "setting": "[4]", "result": 0.00385, "unit": "s⁻¹"}]}
